# The whole screen tested about 410,000 compounds, of which about 6,400 (1.6%) were called active. Inconclusive means that the source gave no clear call. Such entries were picked first, then a sample of the others. The call rests on the fitted dose curve; in most records, active means well fitted inhibition curve with a large enough effect; inconclusive means small, poorly fitted or top-dose-only effect; inactive means no such curve, though single readings can be large or run the other way. No potency is given beside an inconclusive call; the fits are too rough.
# Target: Glucagon-like peptide 1 receptor (Homo sapiens) (UniProt P43220)
# Test: qHTS of GLP-1 Receptor Inverse Agonists (Inhibition Mode); further: nearly all actives have a fitted effect of over 55% in size
# Details: HEK293 GLP-1R CRE-luciferase, luminescence, 24 h, GLP-1R form is constitutively active; activity change, negative = inhibition: at 38.3 µM (top of the series) unless noted
# Summary of the method: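 qHTS in 1536-well format: reporter HEK293 cells expressing constitutive GLP-1R activity in DMEM + 10% Nu serum, 24 hr with compounds at 37 deg C, luminescence read after 12 min with detection reagent.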
# On the % scale 0 is the no-effect control and ±100 the full control effect; potency means the concentration at half of the fitted maximal effect; tags describe the fitted curve by direction and shape.
# Chain of UniProt P43220 (P43220 whole entry, looked up): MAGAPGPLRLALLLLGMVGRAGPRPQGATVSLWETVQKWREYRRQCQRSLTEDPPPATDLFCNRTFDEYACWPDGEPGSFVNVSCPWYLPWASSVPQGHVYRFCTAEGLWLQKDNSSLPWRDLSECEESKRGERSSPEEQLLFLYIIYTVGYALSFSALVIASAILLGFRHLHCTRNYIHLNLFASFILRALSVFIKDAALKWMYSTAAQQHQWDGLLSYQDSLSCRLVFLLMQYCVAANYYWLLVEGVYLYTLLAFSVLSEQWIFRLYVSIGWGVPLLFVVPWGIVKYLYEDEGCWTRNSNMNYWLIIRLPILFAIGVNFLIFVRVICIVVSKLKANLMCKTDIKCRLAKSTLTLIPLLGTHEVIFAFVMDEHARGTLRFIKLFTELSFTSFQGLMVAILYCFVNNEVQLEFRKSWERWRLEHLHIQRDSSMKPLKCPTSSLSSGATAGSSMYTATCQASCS
SMILES,"activity change, negative = inhibition",Potency
CCn1c(=O)c2sccc2n2c(CCCC(=O)Nc3ccc(Oc4ccccc4)cc3)nnc12,inactive: 6.02%,–
COc1ccc(N(C)S(=O)(=O)c2cccc(C(=O)NC3CCC(C)CC3)c2)cc1 (stereo unspecified),–,"inconclusive [inhibitor, partial curve, poor fit]"
Cc1cc(NC(=O)C(C)Oc2ccc(C(C)(C)C)cc2)no1 (stereo unspecified),–,"inconclusive [inhibitor, single point]"
Cc1ccc(C(=O)N/C(=C\C=C\c2ccccc2)C(=O)NCc2ccco2)cc1,–,"inconclusive [inhibitor, single point]"
CCC(=O)N1CCCC(C(=O)Nc2nc3ccccc3[nH]2)CC1 (stereo unspecified),inactive: 19.7%,–
CCOc1ccc2nc(SCC(=O)NCc3ccccc3OC)[nH]c2c1,–,"inconclusive [inhibitor, partial curve, poor fit]"
Cn1c(=O)c(=O)n(C)c2cc(N3CCCC3)c(NC(=O)c3ccccc3Cl)cc21,inactive: 9.76%,–
CCC(=O)Nc1ccc(C(=O)CSc2nnc(CNc3ccc(Cl)cc3)o2)cc1OC,–,"inconclusive [inhibitor, partial curve, poor fit]"
Cc1ccc(S(=O)(=O)N2[C@H](CC(=O)OCc3ccccc3)OC[C@@H]2C)cc1,–,"inconclusive [inhibitor, partial curve, poor fit]"
Nc1cc2c(cc1N)-c1ccccc1C2,–,"inconclusive [inhibitor, single point]"
CCCc1cc(=O)[nH]c(SCC(=O)Nc2cc(S(=O)(=O)N(CC)c3ccccc3)ccc2Cl)n1,–,"inconclusive [inhibitor, single point]"
CCOc1ccc(/C=C2\SC(=S)N(CCCC(=O)NCCCN3CCOCC3)C2=O)cc1,–,"inconclusive [inhibitor, full curve]"
CC(C(=O)Nc1cccc(Br)c1)c1ccc([N+](=O)[O-])cc1 (stereo unspecified),–,"inconclusive [inhibitor, single point]"
CCCCN(CC)CCCNC(=O)c1ccc2c(c1)N(CC)C(=O)c1ccccc1S2(=O)=O,–,"inconclusive [inhibitor, partial curve, poor fit]"
COc1ccc(-n2c(C)cc(C(=O)COC(=O)c3ccc(O)cc3O)c2C)cc1,–,"inconclusive [inhibitor, partial curve, poor fit]"
Cc1cccc(NS(=O)(=O)c2ccc(C)c(C(=O)OCC(=O)Nc3cc(C)on3)c2)c1,–,"inconclusive [inhibitor, partial curve, poor fit]"
CCOC(=O)C(=O)NNc1ccccc1C,–,"inconclusive [inhibitor, full curve, poor fit]"
Cc1cc(Nc2cccc(Cl)c2)nc2ccc(NC(=O)Cc3c(F)cccc3Cl)cc12,–,"inconclusive [inhibitor, full curve, poor fit]"
O=C(NN=Cc1ccc(Cl)cc1Cl)c1ccccc1,–,"inconclusive [inhibitor, single point]"
O=C(Nc1ccccc1)c1ccc(Cl)c(S(=O)(=O)Nc2ccccc2)c1,inactive: -26.9%,–
Cc1cc(C)c(NC(=O)CN2C(=O)NC(CCc3ccccc3)C2=O)c(C)c1 (stereo unspecified),–,"inconclusive [inhibitor, single point]"

SMILES,"activity change, negative = inhibition",Potency
CCC1CCCN1Cn1cnc2c([nH]c3ccc(C)cc32)c1=O (stereo unspecified),–,"inconclusive [inhibitor, single point]"
CC(C)c1ccc(C(=O)NC2=NCCS2)cc1,–,"inconclusive [inhibitor, single point]"
CCNC(=S)Nc1ccc(Cl)c([N+](=O)[O-])c1,–,"inconclusive [inhibitor, single point]"
COc1ccc(C(=O)CSC#N)cc1OC,inactive: 119%,–
CS(=O)(=O)c1ncc(CO)n1Cc1ccccc1,inactive: 13.1%,–
CCOc1ccccc1CNC(=O)CN1C(=O)c2cccnc2Oc2ccc(Cl)cc21,–,"inconclusive [inhibitor, single point]"
CCCC(C)(C)C(=O)N1CCC1(C)C(=O)Nc1ccc(OC)c(OC)c1 (stereo unspecified),–,"inconclusive [inhibitor, single point]"
COc1ccc(/C(N)=N/OC(=O)Cc2cccs2)cc1OC,inactive: 21.7%,–
O=C(Cc1cccs1)N(c1ccc(F)cc1)C1(C(=O)NC2CCCCC2)CCCC1,–,"inconclusive [inhibitor, partial curve, poor fit]"
Cc1nn(CC(O)CN2c3ccccc3Sc3ccccc32)c(C)c1Br (stereo unspecified),–,"inconclusive [inhibitor, partial curve, poor fit]"
CCc1ccccc1NC(=O)Nc1ccc(F)cc1F,–,"inconclusive [inhibitor, partial curve, poor fit]"
Nc1ccc(S(=O)(=O)NNC(=O)C(=O)NNc2ccccc2)cc1,–,"inconclusive [inhibitor, full curve]"
O=C(NCCC1CC1(Cl)Cl)Nc1ccccc1 (stereo unspecified),–,"inconclusive [inhibitor, single point]"
Cc1ccc(S(=O)(=O)CCC(=O)OCC(=O)N2CCN(S(=O)(=O)c3ccccc3)CC2)cc1,–,"inconclusive [inhibitor, single point]"
COc1ccc(CCNC(=O)c2ccc3[nH]c(C)c(C)c3c2)cc1OC,–,"inconclusive [inhibitor, single point]"
CCN(CC)CCNC(=O)C1CCN(S(=O)(=O)N2CCCCC2)CC1,–,"inconclusive [inhibitor, single point]"
O=S(=O)(NCC(c1ccco1)N1CCN(c2ccc(F)cc2)CC1)c1cc(F)ccc1F (stereo unspecified),–,"inconclusive [inhibitor, partial curve, poor fit]"
CCC(=O)Nc1ccc(NC(=O)c2ccccn2)cn1,–,"inconclusive [inhibitor, partial curve]"
CCCCS/C(=C(/C#N)C(N)=O)c1cc2c([nH]1)CCCC2,–,"inconclusive [inhibitor, single point]"
CCc1nc2c(OCc3ccc(Cl)cc3Cl)cccn2c1N(C)C(=O)CC(C)C,–,"inconclusive [inhibitor, single point]"

# — PubChem BioAssay AID624417 (National Center for Advancing Translational Sciences (NCATS), 2012)
